In the supplement of paper PMC11181314:
The list shows a part of the results. Single values of this set are uncertain.

System: U2OS
Test: Cell Painting induction (percent of morphological features significantly changed vs DMSO); higher = stronger morphological change
Settings: 10 µM; 20 h; run: confirmation repeat
Procedure: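 Cell Painting assay in U2OS cells: compounds at 10 µM for 20 h, six dyes, 579 robust CellProfiler features as Z-scores vs DMSO median (MAD). Induction is the % of significantly changed features (active if ≥5%); relative cell count is in % of DMSO. The primary run holds DCM compounds preselected for induction ≥10%; the confirmation repeat defines active compounds (370 of 549). Replicate agreement is low, attributed to precipitation.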
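Also: stains mark DNA, RNA and nucleoli, ER, actin, Golgi, plasma membrane and mitochondria, read by high-content imaging, with DMSO controls at matching solvent concentration.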

Structure (SMILES)	Cell Painting induction
COc1ccc(/C=N/NC(=O)c2c(C)nc3ccc(Br)cn23)cc1OC	inactive: 1.9%
O=C(Nc1ccc(C(=O)NCC2CCN(Cc3ccccc3F)CC2)cc1)C1=CSCCO1	active: 46.6%
O=C(Nc1ccc(Br)cc1)C1[C@@H]2C=C[C@]3(O2)C(C(=O)NC2CCCCC2)N(CCN2CCCCC2)C(=O)[C@H]13 (stereo not given in full)	active: 53.9%
COC(=O)c1cc(=O)n(Cc2cccs2)/c(=N/Cc2cccs2)s1	inactive: 0.9%
COC(=O)C1=CN(CCCN2CCCC2=O)C=C(C(=O)OC)C1c1cccs1	inactive: 0%
CC1=C(C(=O)OCC2CCCO2)C(c2coc3ccccc3c2=O)C2=C(O)CC(C)(C)CC2=N1 (stereo not given)	inactive: 0.2%
O=C(NCCN1CCN(c2ccccc2)CC1)Nc1cccc(Cl)c1	active: 51.5%
CCn1c(C)c(C)c2cc(C(=O)NCCCN3CCN(C)CC3)ccc21	active: 7.3%
Cc1ccc(-c2cc(C(F)F)n3ncc(C(=O)NCc4ccccc4F)c3n2)cc1	inactive: 0.5%
O=C1CCCC2=C1C1(CCCC1)NC(Nc1nc3ccccc3o1)=N2	inactive: 0%
CCOCCCN(C)C1CCN(C(=O)c2oc3ccccc3c2NC(=O)Cc2ccc(F)cc2)CC1	active: 54.9%
c1ccc(Nc2nc(NCCN3CCOCC3)nc(Nc3ccccc3)n2)cc1	active: 24.4%
CCOC(=O)C1CCCN(C(=O)C2CCN(S(=O)(=O)c3c(C)noc3/C=C/c3ccccc3F)CC2)C1 (stereo not given)	active: 46.6%
COc1ccc(CN2CCN(Cc3c[nH]c4ccccc34)CC2)cc1OC	active: 18.5%
O=C(Nc1ccc(NC(=S)NC(=O)c2cccs2)cc1)c1ccccc1	active: 35.6%
Cc1cc2oc(C(=O)NCC(c3ccco3)N3CCCC3)c(C)c2cc1C (stereo not given)	active: 45.6%
CCCn1c2ccc(F)cc2c2nnc(SCCN3CCOCC3)nc21	active: 5%
COc1ccc(Nc2c3c(c(C#N)c4nc5ccccc5n24)CCC3)cc1	inactive: 0%
NC(=O)c1nc(-c2ccncc2)nc2c1nc(O)n2-c1ccc(Cl)cc1	active: 14.9%
CCC1=Nc2cc(C(=O)NCCCN3CCOCC3)ccc2Sc2ccc(Br)cc21	active: 50.6%

Same assay, conditions: 10 µM; 20 h; run: primary screen (compounds selected for induction >=10%)

Structure (SMILES)	Cell Painting induction [%]
COc1ccc(/C=N/NC(=O)c2c(C)nc3ccc(Br)cn23)cc1OC	50.3
O=C(Nc1ccc(C(=O)NCC2CCN(Cc3ccccc3F)CC2)cc1)C1=CSCCO1	52.2
O=C(Nc1ccc(Br)cc1)C1[C@@H]2C=C[C@]3(O2)C(C(=O)NC2CCCCC2)N(CCN2CCCCC2)C(=O)[C@H]13 (stereo not given in full)	52.3
COC(=O)c1cc(=O)n(Cc2cccs2)/c(=N/Cc2cccs2)s1	25.4
COC(=O)C1=CN(CCCN2CCCC2=O)C=C(C(=O)OC)C1c1cccs1	12.6
CC1=C(C(=O)OCC2CCCO2)C(c2coc3ccccc3c2=O)C2=C(O)CC(C)(C)CC2=N1 (stereo not given)	10.4
O=C(NCCN1CCN(c2ccccc2)CC1)Nc1cccc(Cl)c1	43
CCn1c(C)c(C)c2cc(C(=O)NCCCN3CCN(C)CC3)ccc21	10.2
Cc1ccc(-c2cc(C(F)F)n3ncc(C(=O)NCc4ccccc4F)c3n2)cc1	12.8
O=C1CCCC2=C1C1(CCCC1)NC(Nc1nc3ccccc3o1)=N2	21.2
CCOCCCN(C)C1CCN(C(=O)c2oc3ccccc3c2NC(=O)Cc2ccc(F)cc2)CC1	42.7
c1ccc(Nc2nc(NCCN3CCOCC3)nc(Nc3ccccc3)n2)cc1	44
CCOC(=O)C1CCCN(C(=O)C2CCN(S(=O)(=O)c3c(C)noc3/C=C/c3ccccc3F)CC2)C1 (stereo not given)	43.2
COc1ccc(CN2CCN(Cc3c[nH]c4ccccc34)CC2)cc1OC	18.7
O=C(Nc1ccc(NC(=S)NC(=O)c2cccs2)cc1)c1ccccc1	54.7
Cc1cc2oc(C(=O)NCC(c3ccco3)N3CCCC3)c(C)c2cc1C (stereo not given)	52.8
CCCn1c2ccc(F)cc2c2nnc(SCCN3CCOCC3)nc21	19.5
COc1ccc(Nc2c3c(c(C#N)c4nc5ccccc5n24)CCC3)cc1	55.4
NC(=O)c1nc(-c2ccncc2)nc2c1nc(O)n2-c1ccc(Cl)cc1	19.7
CCC1=Nc2cc(C(=O)NCCCN3CCOCC3)ccc2Sc2ccc(Br)cc21	37.5
